These results are taken from US20220370434A1, “METHODS AND COMPOSITIONS FOR TREATING CANCER” (City of Hope, priority 2019, published 2022).

The subject of one data set is NB4 cells. Briefly: ATRA induced myeloid differentiation (CD11b, CD14). The format is cell-based. The following applies: 200 nM ATRA, 50 nM formula (I) or 100 nM formula (II), 48 hours. How it is done: Flow cytometry analysis: Flow cytometry analysis with surface markers was conducted as described previously with some modifications (33). Antibodies used include anti-mouse CD45.2-PE (12-0454-83, Thermo Fisher Scientific), anti-Human CD33 PE (12-0339-42, Thermo Fisher Scientific), PE anti-mouse/human CD11b antibody, anti-Human CD15 APC (17-0158-42, eBioscience), and anti-Human CD34 FITC (11-0349-42, eBioscience).

For data set [1], the system named is NOMO-1 AML cells with FTO knockdown. The data set can be described thus: Cell viability with knockdown of FTO (shFTO). The format is cell-based.
The next data set relates to MA9.3ITD AML cells. Briefly: Xenograft AML mouse model with MA9.3ITD cells. The following applies: for survival (Kaplan-Meier): cells pretreated 100 nM 48 hours, 2 mg/kg/day every other day i.p., ten treatments; for engraftment of human AML cells (hCD33 positive): peripheral blood, bone marrow, spleen, end point.
For data set [2], the system named is murine MLL-AF9 (MA9) and FLT3ITD/NPM1mut primary leukemic cells. The data set can be described thus: Self-renewal of LSCs/LICs (limiting dilution analysis). The class given is cell-based. Here is the method: Given the increased abundance of FTO in AML cells and CD34^+ AML cells, we reasoned the critical oncogenic function of FTO both in established leukemic cells as well as in LSCs. The function of FTO on myeloid differentiation, cell apoptosis and colony forming activity of AML patients derived LSCs was evaluated. It was observed that leukemia differentiation following FTO knockdown is associated with increased cell apoptosis in AML patients.

The subject of another data set is NOMO-1 cells. Briefly: Cell cycle assay. The class given is cell-based. The following applies: 48 hour. Here is the method: Cell cycle and apoptosis assays: Propidium Iodide (PI) DNA staining was chosen to assess the cells located at G0/G1, S, and G2/M stages; while Hoechest 33342 and Pyronin Y was selected to evaluate cells at G0, G1, and S/G2/M phases. For PI staining, 1*10^6 cells were collected, washed once with PBS, and suspended in 1 ml buffer with 0.05 mg/ml PI, 0.1% trisodium citrate, 0.02 mg/ml ribonuclease A, 0.3% NP-40, incubated at 37° C. for 30 minutes, and then applied to flow cytometer directly. As Hochest 33342/Pyronin Y staining, the cells were collected, washed, and re-suspended in 1 ml cell culture medium, stained with 10 μg/ml Hochest 33342 at 37° C. for 45 minutes, and further stained with 0.5 μg/ml Pyronin Y for additional 15 minutes at 37° C. The samples were transferred onto ice before subjected to flow cytometry. Cell apoptosis was validated with PE Annexin V Apoptosis Detection Kit I (559763, BD Biosciences) according to the instructed protocol. Flow cytometry was performed with Fortessa X20 and the related results were analyzed with FlowJo V10 software.

Data set [3] relates to primary murine MLL-AF9 (MA9) leukemic cells. The data set can be described thus: Colony forming assay. The following applies: 10 nM and 50 nM.
The subject of a further data set is healthy CD34+ HSPCs. Briefly: Cell viability of healthy donor-derived CD34+ HSPCs. As to conditions: 100 nM formula (I), 200 nM formula (II), 48 hours. The format is cell-based, human.
For data set [4], the system named is murine FLT3ITD/NPM1mut leukemic cells. The data set can be described thus: Colony forming assay.
A further data set has as its system NOMO-1 AML cells. Briefly: Xenograft AML mouse model with NOMO-1 cells. The format is in vivo, NRGS mice. As to conditions: cells pretreated 100 nM 48 hours; 2 mg/kg/day every other day i.p., ten treatments.
The next data set deals with TET1 (Homo sapiens, UniProt Q8NFU7). Briefly: DNA demethylase activity of TET1. The class given is biochemical.
A further data set relates to K562 and TF-1 cells. The data set can be described thus: Cell growth/proliferation IC50 in leukemia cells with lower FTO expression. The following applies: 72 hours; cells with low FTO expression.
Data set [5] deals with NOMO-1, MONOMAC 6 (MM6), MV4-11, ML-2, MA9.3ITD and U937 cells. The data set can be described thus: Cell growth/proliferation IC50 in leukemia cells with higher FTO expression. As to conditions: 72 hours; cells with high FTO expression.

SMILES strings stand for the structures.

Turning to `C(=N\NC1=NCCN1)/c1c2ccccc2c(/C=N/NC2=NCCN2)c2ccccc12` [formula (I)], the myeloid differentiation entry in the data set on NB4 cells is “accelerated ATRA induced myeloid differentiation”. In addition, the “sensitivity upon knockdown of FTO (shFTO)” value in [1] was “decreased the sensitivity”. Further, the “survival (Kaplan-Meier)” value in the data set with MA9.3ITD AML cells and in the data set with NOMO-1 AML cells was “lived significantly longer than the control groups” throughout. In addition, in the data set on MA9.3ITD AML cells (mouse, in vivo), the “anti-leukemic effects compared with FB23-2 (survival, spleen weight, engraftment)” value is on record as “much stronger anti-leukemic effects than FB23-2”. Also, the “engraftment of human AML cells (hCD33 positive)” value with MA9.3ITD AML cells is “blocked engraftment of leukemia cells into peripheral blood, bone marrow, and spleen”. The “self-renewal activity of LSCs/LICs” value in data set [2] is reported as “attenuation on self-renewal activity of LSCs/LICs”. Also, in the data set with NOMO-1 cells, the “cell cycle, Hoechest 33342/Pyronin Y staining” value is “Cell cycle arrest in G0 phase”. The “cell cycle, PI staining” value in the data set with NOMO-1 cells was “cell cycle arrest was observed in G0/G1 and S stages”. Moreover, the colony forming activity entry in [3] is recorded as “decreased the colony forming activity”; in [4] (10 nM and 50 nM, b390), “decreased the colony forming activity”. In addition, the “toxicity on normal cells (cell viability)” value in the data set on healthy CD34+ HSPCs is “little obvious toxicity on normal cells”. Further, on TET1, the “DNA demethylase activity of TET1” value is “did not suppress”. Further, the IC50 values entry in the data set with K562 and TF-1 cells is “higher IC50 values”; in data set [5] it was “lower IC50 values”.
For `Cc1c(-c2ccc(-c3ccccc3F)cc2)nc2ccc(F)cc2c1C(=O)O` [formula (II)], the myeloid differentiation entry in the data set with NB4 cells was “accelerated ATRA induced myeloid differentiation”. Moreover, the “sensitivity upon knockdown of FTO (shFTO)” value in data set [1] was “decreased the sensitivity”. For the same compound, the “survival (Kaplan-Meier)” value in the data set with MA9.3ITD AML cells and with NOMO-1 AML cells was “lived significantly longer than the control groups” each time. For the same compound, the “engraftment of human AML cells (hCD33 positive)” value in the data set with MA9.3ITD AML cells was “blocked engraftment of leukemia cells into peripheral blood, bone marrow, and spleen”. The “self-renewal activity of LSCs/LICs” value in [2] is “attenuation on self-renewal activity of LSCs/LICs”. For the same compound, the “cell cycle, Hoechest 33342/Pyronin Y staining” value in the data set on NOMO-1 cells is listed as “Cell cycle arrest in G0 phase”. Further, the “cell cycle, PI staining” value in the data set on NOMO-1 cells is “cell cycle arrest was observed in G0/G1 and S stages”. Moreover, the “toxicity on normal cells (cell viability)” value in the data set with healthy CD34+ HSPCs was “little obvious toxicity on normal cells”. In [4] (1 μM and 5 μM), the colony forming activity entry is recorded as “decreased the colony forming activity”. In addition, the “DNA demethylase activity of TET1” value on TET1 is “did not suppress”. The IC50 values result in the data set on K562 and TF-1 cells is reported as “higher IC50 values”; in data set [5], “lower IC50 values”.
